Experimental data: the supplement of paper PMC3334620
Over roughly 33,000 sequences, “E-score (-0.5 to 0.5)” has its median near -0.041; the highest 2% begin near 0.37. This is one part of the list.

molecular target: T1, Ecm22 (UniProt Q05958); assay: PBM E-score (8-mer binding enrichment) (E-score (-0.5 to 0.5)); higher = stronger / more preferred TF binding; most listed sequences are background and not binding sites; conditions: protein concentration: 200 nM; construct: GST-full length
T1 sequence: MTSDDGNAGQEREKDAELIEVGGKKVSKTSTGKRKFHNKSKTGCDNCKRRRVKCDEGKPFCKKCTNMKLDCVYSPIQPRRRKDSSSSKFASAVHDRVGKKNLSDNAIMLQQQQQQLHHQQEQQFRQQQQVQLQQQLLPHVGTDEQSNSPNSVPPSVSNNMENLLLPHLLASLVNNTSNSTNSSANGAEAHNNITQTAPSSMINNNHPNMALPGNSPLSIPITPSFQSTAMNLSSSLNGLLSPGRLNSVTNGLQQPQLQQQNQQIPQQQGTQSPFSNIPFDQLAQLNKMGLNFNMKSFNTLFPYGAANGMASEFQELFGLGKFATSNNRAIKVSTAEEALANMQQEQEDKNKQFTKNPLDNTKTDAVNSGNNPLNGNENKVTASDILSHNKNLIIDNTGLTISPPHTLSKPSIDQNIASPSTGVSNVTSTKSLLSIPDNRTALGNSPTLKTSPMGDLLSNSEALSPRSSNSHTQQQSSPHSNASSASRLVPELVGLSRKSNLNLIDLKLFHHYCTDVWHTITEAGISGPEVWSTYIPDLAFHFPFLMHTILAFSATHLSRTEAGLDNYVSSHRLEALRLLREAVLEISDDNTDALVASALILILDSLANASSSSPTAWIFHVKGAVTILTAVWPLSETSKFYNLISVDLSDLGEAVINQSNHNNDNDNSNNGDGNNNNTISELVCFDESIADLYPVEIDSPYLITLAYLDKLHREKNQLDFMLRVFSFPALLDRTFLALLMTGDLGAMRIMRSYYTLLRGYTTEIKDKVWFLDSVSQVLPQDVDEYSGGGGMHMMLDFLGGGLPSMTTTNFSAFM
Summary of the method: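 Universal all-10-mer Agilent arrays, fresh or stripped once, were converted to double-stranded form by primer extension. GST-tagged yeast transcription factors from PURExpress in vitro transcription/translation, full-length or DNA-binding domain only, were applied at about 100-200 nM and detected with fluorescent anti-GST. After masliner normalisation, the Universal PBM Analysis Suite scored each ungapped eight-base word together with its reverse complement by E-score.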

Sequence | PBM E-score
GAGAGCTA | 0.0882
AACGACGA | 0.444
ACCGTACA | 0.371
GAAGATGA | -0.0687
GTACGCCA | 0.145
ACTAAACG | 0.457
CTGACTAC | -0.277
GGAGTATA | 0.0364
AACGCGGC | 0.189
CCGGACAA | -0.00597
GACCTCCA | -0.114
TCCGGCGA | -0.0052
GTGATCGA | 0.0917
CGGTCTTC | 0.176
GGAAAGCC | -0.0598
ATGAATGA | 0.0155
CCCATGAG | -0.23
GTCCCTTA | -0.0612
TGGTGCAA | -0.143
ATTGGCCA | -0.118
CGATTCCG | 0.0468
CTCGTAGA | 0.376
AGCTTACA | -0.00967
TAGCGGCA | -0.146
GGGAGGAA | -0.0599

Sequence | PBM E-score
AAACCAGC | -0.133
GAAGTGGA | -0.115
ACCGGCGA | 0.0117
CATATAGG | -0.093
TACTGACA | 0.0366
ATAAGCAC | 0.103
CTCTATAA | -0.2
ACTGTGAT | -0.04
AAACTATC | 0.108
GGCCAATA | -0.0207
ACATCATC | -0.0939
CTGGGTGC | -0.0504
AAACCGTG | -0.0465
ACTTTTGG | -0.141
TATCCATA | 0.181
GCCGCATA | 0.225
CCGTTACA | 0.0242
CCTGCAGC | -0.066
AGTTAGTG | -0.15
AAATAGAT | 0.121
TATCGGGA | 0.0692
TGCCAACA | 0.0274
TGTAGGAA | -0.00384
ACATCCCT | -0.128
ATGTCCTA | -0.0731

Sequence | PBM E-score
AAATACCG | 0.176
AAGAGCTG | -0.264
AGGTTGAA | 0.00678
CACGTCCC | -0.184
CGCCACAG | -0.239
TTATAGAA | -0.0153
AGGCCCAA | -0.0795
AGCAGTCA | -0.0771
ATTGAAAG | -0.225
CCGAAATA | 0.239
CCTGTTTC | -0.102
CATTCCGA | 0.0438
CTGATAGC | -0.0763
GGCTCATA | -0.11
TACGACGA | 0.469
CAAATCAG | -0.194
GGGGCCCA | -0.178
ACCCCAAA | 0.0197
AGCACCTC | -0.0692
CCTAAATA | -0.041
AACAAGGG | -0.00652
ATATTTCA | 0.0426
CGCATCAA | 0.0609
AAAATGGT | 0.0341
AAGATCTG | -0.153

Sequence | PBM E-score
CTCCCAAA | -0.0526
AAACAAAC | 0.0233
ATTGACCC | 0.0352
ACTCAACG | 0.106
ATAGGTGG | -0.0501
ACTTAAGG | -0.138
ACGGCGCT | 0.129
ATATACAA | 0.0401
GATCACAA | -0.0118
TATCAAAA | -0.138
CTCGTCAC | 0.0816
ACTACATC | -0.0932
CAACTTTA | 0.105
GAAACGGC | 0.2
CCAAGCAC | -0.0787
GCCCGAGA | 0.00137
GGACGAAC | 0.111
AAATAATG | 0.108
CCGAATAC | 0.253
GCTAAGCA | -0.173
CGTTGTAA | 0.0953
ACCCTGGC | -0.177
GTAAGATA | 0.137
CACATTGA | -0.00041
AACGTAGT | 0.111

Sequence | PBM E-score
ATATGGTA | 0.186
GGTGTTAA | 0.0977
GCCGGTCA | -0.223
CGAGTTAC | 0.253
ACCATTGC | -0.00099
GCGAAACA | 0.0787
CTCACGAG | 0.0975
CTCAATTC | 0.132
AGAGGTTC | -0.105
ATCATGCA | -0.298
GTGTGTAA | -0.196
AGAACCAC | -0.149
ACGATCGT | 0.43
GTGGGGAA | 0.0882
GGCCTGTA | -0.291
CCTCTTGA | -0.188
CTGCGCAC | -0.196
AAGGCCAT | 0.0113
GGGGGCGA | -0.0785
AGTCTCAC | -0.109
CATGAACG | 0.246
CTGCGTAC | 0.252
CTGGCACC | -0.282
AATCGATT | 0.0191
CAGCCACA | -0.24

Sequence | PBM E-score
CCCAAGCC | -0.103
CAACGGTA | 0.0958
ATAAGGAC | -0.131
ACACGTGC | -0.0804
ACGGGAGC | 0.225
CACAGCAG | -0.0262
CCAGATGA | -0.112
TAGGTCCA | -0.00993
TATCTTAA | -0.118
ATTATCAC | 0.025
AATACGTA | 0.228
ATTAGCAA | 0.00504
ACCGCCGC | 0.207
AAAGGTTA | -0.0621
TATCGTAA | 0.363
ACCGCGTC | 0.103
AAAAGCAG | -0.159
GGTGATAC | -0.103
GCATGGCA | -0.00697
CACCGCAC | 0.0408
GCGAAACC | 0.0505
ACGGGTAA | 0.192
CAGCTTGG | -0.186
GAGGCCCC | -0.232
AGGCCCAT | -0.148

Sequence | PBM E-score
CTAACCTC | -0.0491
GCGCCCAA | 0.00566
TCTATAGA | -0.293
AAAGGAAC | 0.207
CCGAGAGC | 0.114
TAGAGTAA | 0.0969
AGATCAAG | 0.131
AAGGTTCG | 0.0617
GTTGGCAA | 0.106
TATGTGAA | -0.0244
GCCTAACC | -0.0825
CAAAGTCC | -0.0879
CCCCTTCG | -0.0136
CAGCGCCG | 0.0283
GCACATAA | 0.027
AACCTGCC | -0.223
CCAGGTAC | 0.0984
CAGCAGAC | -0.0313
CGGAGAAA | 0.244
CCGTGTCC | -0.0456
ACGTATCA | 0.281
CCAGGTAA | 0.0558
